This note sets out measurements from ChEMBL document CHEMBL4888484, “Replenishing the malaria drug discovery pipeline: Screening and hit evaluation of the MMV Hit Generation Library 1 (HGL1) against asexual blood stage Plasmodium falciparum ,using a nano luciferase reporter read-out” (2022).

The campaign covered roughly 150,000 compounds. About 540 (0.36%) showed an effect of 50% or more. The list shows a part of the results.

In the test the test system is Plasmodium falciparum. Description: Primary screen in NF54 nanoGlo assay, in single point, at 2uM, 72h; a lower Z score goes with more inhibition. It counts as functional, Erythrocyte. The note with it: timepoint 72 hour.
Broadly, the % Inhibition is the relative decrease from the control value, in per cent. Regarding `CN1CCCc2c(c3cc(F)ccc3n2CCc2ccncc2)C1`, the “% Inhibition” value is reported as 0% and the Z score was 0.01.

Take `COc1cc(C(=O)NCCNC(=O)c2cc(-c3ccccc3)nc3ccccc23)cc(OC)c1OC`: the “% Inhibition” value is -11% and the Z score was 1.69.

Consider `Cc1[nH]c(=O)[nH]c(=O)c1CC(=O)N[C@H]1CC(=O)N(C2CCCCCC2)C1`, for which the “% Inhibition” value was -9% and the Z score is given as 1.45.

In the case of `Cc1ccc([C@@H](C)CNC(=O)Nc2cc(C3CCC3)nn2C)cc1`, the “% Inhibition” value is recorded as 1% and the Z score is given as -0.16.

With `COCc1nsc(NC(=O)c2ccccn2)n1`, the “% Inhibition” value was determined as 6% and the Z score is -0.54.

For `CN(CCc1nc2ccccc2[nH]1)C(=O)Cn1nnnc1CN1CCCC1`, the “% Inhibition” value was -12% and the Z score worked out at 1.63.

In the case of `Clc1ccc(CCNc2nc(-c3ccccc3)no2)cc1`, the “% Inhibition” value is reported as -3% and the Z score is 0.29.

As to `CCN(C[C@H](C)C#N)C(=O)C1CCCC1`, the “% Inhibition” value is -8% and the Z score worked out at 0.77.

Turning to `O=C(Nc1ccccc1CN1CCCCC1)NC1CCOCC1`, the “% Inhibition” value is reported as -4% and the Z score amounted to 0.76.

With `Cc1cnc(C(=O)Nc2nc3c(s2)CCC3)cn1`, the “% Inhibition” value is reported as -17% and the Z score is given as 1.43.

As for `CC(C)C(=O)N1CCC(c2nc(-c3cnsc3)no2)CC1`, the “% Inhibition” value was -1% and the Z score came to 0.07.

As to `C[C@@H](C(=O)Nc1cc(F)ccc1O)N(C)C`, the “% Inhibition” value is given as 0% and the Z score is listed as -0.08.

`Cc1nc(C(=N)NOC(=O)Cc2ccccc2)no1`: the “% Inhibition” value is -13% and the Z score is listed as 1.79.

As for `O=C(COc1ccc(Cl)cc1)Nc1cccc(Cl)c1N1CCCC1`, the “% Inhibition” value was determined as 4% and the Z score is reported as -0.46.

`CCOc1cccc(-c2ccc3nc(-c4cccc(OC)c4)c(CCC(=O)NCCN4CCCC4)n3c2)c1`: the “% Inhibition” value is 59% and the Z score was -11.14.

On to `CCOc1ncccc1CNc1cncc(-n2cccn2)n1`, for which the “% Inhibition” value is -17% and the Z score is recorded as 2.64.

In the case of `CCNC(=O)[C@@]1(OCc2ccc(F)cc2F)CC(OCc2cccc(Cl)c2)[C@@H]2OC(C)(C)O[C@@H]2C1` (some centres undefined), the “% Inhibition” value is listed as -15% and the Z score is listed as 1.49.

In the case of `CC(=O)c1c(-c2cccc(C(=O)N3CCN(CCO)CC3)c2)cnn1C`, the “% Inhibition” value was determined as 3% and the Z score is -0.6.

In the case of `CC(NC(=O)N[C@H]1CCO[C@@H]1c1cnn(C(C)C)c1)C1CCC(F)CC1` (some centres undefined), the “% Inhibition” value was -26% and the Z score was found to be 2.38.

On to `CCn1cnnc1[C@H]1CCCN(c2c(C(=O)O)cnc3ccccc23)C1`, for which the “% Inhibition” value was -11% and the Z score was determined as 1.51.

For `CC(C)CN1CCC[C@H]1CNC(C)c1cnn(C)c1` (some centres undefined), the “% Inhibition” value was -15% and the Z score amounted to 2.06.

For the compound `Cc1cccnc1C(=O)N[C@@H]1CCC[C@@H]1C(=O)N1CCc2ccccc2C1`, the “% Inhibition” value is listed as -6% and the Z score is given as 0.98.

Take `Cn1nccc1C1CC(Nc2nc(C3CCCCC3)ns2)CCO1` (centres undefined): the “% Inhibition” value is -11% and the Z score is reported as 1.76.

As to `O=C(C[C@H]1CCCCN(Cc2ccccc2)C1=O)NC1CC1`, the “% Inhibition” value was -9% and the Z score was 1.7.

In the case of `CC(C)N1CCC2(CCC(O)CC2)CC1`, the “% Inhibition” value came out at 1% and the Z score is -0.07.

Turning to `COc1cccc(-c2nc3ccc(-c4cccc(C(F)(F)F)c4)cn3c2CCC(=O)Nc2ccc(C)cc2)c1`, the “% Inhibition” value is -6% and the Z score was 1.08.

In the case of `Cc1ccc(S(=O)(=O)NCc2ccc(N3CCCC3=O)cc2)c(C)c1`, the “% Inhibition” value turned out to be 1% and the Z score is reported as -0.18.

Take `Cn1cc(-c2cc3n(n2)CCC(=O)N3CC(=O)Nc2ccc(Cl)cc2)c2ccccc21`: the “% Inhibition” value is -10% and the Z score turned out to be 1.91.

With `O=C(c1ccc(F)c(F)c1)N1CCN(S(=O)(=O)c2cc3c4c(c2)CCC(=O)N4CCC3)CC1`, the “% Inhibition” value is given as 1% and the Z score is given as -0.18.

For the compound `FC(F)(F)c1nc2ccccc2nc1N1CCC2(CC1)OCCO2`, the “% Inhibition” value is recorded as -4% and the Z score worked out at 0.82.

For the compound `CCN1CCC2CCC(C1)N2Cc1ncc(C2OCCO2)s1` (centres undefined), the “% Inhibition” value is 0% and the Z score was -0.01.

In the case of `COC(=O)c1cc2n(n1)C[C@@](C)(C(=O)NC1CCC(C)CC1)N(Cc1ccccc1OC)C2=O` (some centres undefined), the “% Inhibition” value is recorded as 16% and the Z score was -1.87.

In the case of `O=C(NCC1(CO)CC2(CCC2)C1)N[C@H]1CCOC2(CCC2)C1`, the “% Inhibition” value was -9% and the Z score came to 1.53.

With `Nc1ccccc1Nc1nc(C(C(F)(F)F)(C(F)(F)F)C(F)(F)F)nc(C(C(F)(F)F)(C(F)(F)F)C(F)(F)F)n1`, the “% Inhibition” value is -11% and the Z score is recorded as 1.69.

Regarding `COc1ccc(S(=O)(=O)N2CCC(n3cnnc3C)CC2)cc1Cl`, the “% Inhibition” value was -11% and the Z score is 1.63.

Consider `CC(=O)c1sc(NC(=O)Cc2c[nH]c3ccccc23)nc1-c1ccccc1`, for which the “% Inhibition” value was -2% and the Z score is given as 0.26.

As to `COCCN1CC2(CCC1=O)CCN(C(=O)c1c(C)nn(C)c1C)CC2`, the “% Inhibition” value is recorded as -8% and the Z score came to 0.78.

With `CC(C)(C)OC(=O)N1CC(CC(=O)Nc2ccc(F)c(Cl)c2)C1`, the “% Inhibition” value is 5% and the Z score is reported as -0.75.

Consider `C#Cc1cc(F)c(Br)c(F)c1N`, for which the “% Inhibition” value is on record as 0% and the Z score came out at 0.

For the compound `O=C(NCC1CC12CCCc1ccccc12)NC1CCCNC1=O` (centres undefined), the “% Inhibition” value came to 4% and the Z score is recorded as -0.52.

Turning to `CN(C)c1cccc(NC(=O)CC(F)(F)F)n1`, the “% Inhibition” value is 24% and the Z score was -2.76.

`O=C(NCCc1ccncc1)c1ccc(Br)o1`: the “% Inhibition” value was -11% and the Z score was found to be 1.51.
